From PubChem BioAssay AID624418 (National Center for Advancing Translational Sciences (NCATS), 2012)
The whole screen tested about 410,000 compounds, of which about 530 (0.13%) were called active. This list was built around the results that the source calls inconclusive (neither active nor inactive); the mix of calls is not that of the screen. The call rests on the fitted dose curve; in most records, active means well fitted inhibition curve with a large enough effect; inconclusive means small, poorly fitted or top-dose-only effect, or another doubt; inactive means no such curve, though single readings can be large or run the other way. Where the call is inconclusive, the potency comes from a doubtful curve fit.

Test: qHTS of GLP-1 Receptor Inverse Agonists: Cytotox Screen
Details: HEK293 cAMP-luciferase reporter cells, luminescence, 24 h; series mostly up to 38.3 µM
Procedure, shortened: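 Cells in DMEM/10% Nu serum/1% pen-strep, 1536-well format. Pre-incubated 12 h, dosed with 23 nL compound, incubated a further 24 h. Luciferase detection, 12 min at room temp, luminescence.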
Potency means the concentration at half of the fitted maximal effect.

Question: Which Potency does the source give for `CCc1nnc2n1N(C(C)=O)C(c1ccc(C(C)(C)C)cc1)=C(C(C)=O)S2` here?
Answer: inactive

Question: Which Potency does the source give for `O=C(Nc1nc2ccccc2[nH]1)c1ccc(Cl)c([N+](=O)[O-])c1` here?
Answer: inactive

Question: Which Potency does the source give for `Cc1cc2c(c(/C=C/C(=O)c3ccccc3)c1)OC1(C=C2)Oc2ccccc2C(=O)N1C` (stereo not drawn) here?
Answer: inconclusive: 5.01 µM [inhibitor, single point]

Question: Which Potency does the source give for `COc1cccc(NC(=O)CCc2nnc3n(CC(C)C)c(=O)c4ccccc4n23)c1` here?
Answer: inactive

Question: With `Cc1cc(NC(=O)c2cc(-c3ccccc3)on2)no1` as the compound, how does the Potency read?
Answer: inactive

Question: With `Cc1ccc(C(C)NC(=S)NCc2ccc(F)cc2)c(C)c1` (stereo not drawn) as the compound, how does the Potency read?
Answer: inconclusive: 28.2 µM [inhibitor, single point]

Question: Which Potency does the source give for `CC(C)Sc1nnc(NC(=O)c2ccc3c(c2)OCO3)s1` here?
Answer: inactive

Question: Which Potency does the source give for `CC(=O)c1ccc(-n2c(SCC(=O)c3c[nH]c4ccccc34)nc3ccccc3c2=O)cc1` here?
Answer: inconclusive: 3.16 µM [inhibitor, full curve, poor fit]

Question: Which Potency does the source give for `CCOc1ccccc1N(CC)C(=O)c1cc2c(=O)n(CC)c3ccccc3c2s1` here?
Answer: inconclusive: 15.8 µM [inhibitor, single point]

Question: With `Nc1ccccc1Nc1cccc(C(F)(F)F)c1` as the compound, how does the Potency read?
Answer: inconclusive: 12.6 µM [inhibitor, single point]

Question: Which Potency does the source give for `CN(C)S(=O)(=O)c1cccc(NC(=S)NN=C(Cc2ccccc2)Cc2ccccc2)c1` here?
Answer: inconclusive: 28.2 µM [inhibitor, single point]

Question: Which Potency does the source give for `COc1ccc(NC(=S)NCCC2=CCCCC2)cc1OC` here?
Answer: inconclusive: 10 µM [inhibitor, partial curve, poor fit]

Question: With `Cc1cc(N2CCN(C(=O)c3[nH]c(C(F)(F)F)nc3-c3ccccc3)CC2)c2ccccc2n1` as the compound, how does the Potency read?
Answer: inconclusive: 12.6 µM [inhibitor, partial curve]

Question: With `COc1ccc(CCN(C)CCc2ccc(OC)c(OC)c2)cc1OC` as the compound, how does the Potency read?
Answer: inactive

Question: With `CN(C)CC(CCCCC(CN(C)C)C(=O)c1ccccc1)C(=O)c1ccccc1` (stereo not drawn) as the compound, how does the Potency read?
Answer: inconclusive: 7.08 µM [inhibitor, partial curve, poor fit]

Question: For `COc1ccc(OCC(=O)Nc2cccc(C(=O)Nc3ccccc3C(=O)O)c2)cc1`, which Potency is on record?
Answer: inconclusive: 28.2 µM [inhibitor, single point]

Question: For `Cc1ccc(/C=N/N2CCN(c3ccccn3)CC2)o1`, which Potency is on record?
Answer: inactive

Question: Which Potency does the source give for `Oc1ccc2ccccc2c1C=NCc1cn2ccsc2n1` here?
Answer: inactive

Question: For `CCC(C)c1ccc(O)c(NC(=S)NC(=O)c2cccs2)c1` (stereo not drawn), which Potency is on record?
Answer: inactive

Question: Which Potency does the source give for `Cc1ccc(C(=O)Cc2cc3ccccc3oc2=O)c(C)c1` here?
Answer: inactive

Question: Which Potency does the source give for `O=C(CC1(O)C(=O)Nc2ccc(Br)cc21)c1ccccc1` (stereo not drawn) here?
Answer: inactive

Question: With `CCOC(=O)c1sc(NC(=O)CCN2CCCCCC2)c(C(=O)OCC)c1C` as the compound, how does the Potency read?
Answer: inconclusive: 22.4 µM [inhibitor, single point]

Question: With `Cc1ccc(C(=O)O/N=C(\N)Cc2ccc([N+](=O)[O-])cc2)c(Cl)c1` as the compound, how does the Potency read?
Answer: inconclusive: 14.1 µM [inhibitor, single point]

Question: Which Potency does the source give for `CC(C)(C)C(=O)N1CCN(c2ccc([N+](=O)[O-])c(NCc3cccnc3)c2)CC1` here?
Answer: inconclusive: 11.2 µM [inhibitor, partial curve, poor fit]

Question: Which Potency does the source give for `Cc1ccccc1CN1C(=O)c2ccccc2Sc2ccc(C(=O)NCc3ccccc3)cc21` here?
Answer: inactive

Question: For `O=C(OC1CCOC1=O)c1cc(-c2ccc(Br)cc2)nc2ccccc12` (stereo not drawn), which Potency is on record?
Answer: inactive

Question: Which Potency does the source give for `COc1ccccc1N1CCN(Cc2cc(Br)c(O)c3ncccc23)CC1` here?
Answer: active: 1.12 µM

Question: Which Potency does the source give for `O=C(O)c1cccc2c1C(=O)c1cc(Br)ccc1S2(=O)=O` here?
Answer: inactive

Question: With `CCN(CC)CCCN(C(=O)c1ccco1)c1nc(-c2ccc(Cl)cc2)cs1` as the compound, how does the Potency read?
Answer: inconclusive: 11.2 µM [inhibitor, partial curve, poor fit]

Question: Which Potency does the source give for `Cc1cc(Nc2ccc3c(c2)OCCO3)c2ccccc2n1` here?
Answer: inconclusive: 11.2 µM [inhibitor, partial curve, poor fit]

Question: With `O=C(Nc1cccc(C(F)(F)F)c1)c1cccnc1NCCc1ccccc1` as the compound, how does the Potency read?
Answer: inconclusive: 28.2 µM [inhibitor, single point]

Question: Which Potency does the source give for `Cc1ccc(-n2c(=O)[nH]c3cc(C(=O)NCCc4ccccc4)ccc3c2=O)cc1` here?
Answer: inactive

Question: For `O=C(Nc1ccccc1)Nc1cccn(Cc2c(F)cccc2Cl)c1=O`, which Potency is on record?
Answer: inconclusive: 8.91 µM [inhibitor, partial curve]

Question: For `COc1cc([N+](=O)[O-])ccc1NC(=O)COC(=O)CCOc1ccc(C)cc1`, which Potency is on record?
Answer: inconclusive: 11.2 µM [inhibitor, single point]

Question: With `COCC1CCCCN1C(=O)c1ccc(OC2CCN(CCc3ccccc3)CC2)cc1` (stereo not drawn) as the compound, how does the Potency read?
Answer: inconclusive: 14.1 µM [inhibitor, single point]

Question: Which Potency does the source give for `COc1ccccc1Cn1c(=O)oc2ccc(C)cc21` here?
Answer: inactive

Question: With `Cc1ccc(NC(=O)Cn2c(=O)n(CCCCC(=O)NCc3ccco3)c(=O)c3ccccc32)cc1` as the compound, how does the Potency read?
Answer: inconclusive: 28.2 µM [inhibitor, single point]

Question: With `CCC(c1nnnn1C1CCCC1)N(Cc1cccs1)Cc1cc2cc(C)ccc2[nH]c1=O` (stereo not drawn) as the compound, how does the Potency read?
Answer: inconclusive: 28.2 µM [inhibitor, single point]

Question: For `CCN(CC)CCOC(=O)c1ccc(N/C=C(/C#N)c2nc(-c3cccc(OC)c3)cs2)cc1`, which Potency is on record?
Answer: inconclusive: 14.1 µM [inhibitor, single point]

Question: Which Potency does the source give for `COc1ccc(NC2=C(Cl)C(=O)N(CCc3ccccc3)C2=O)cc1` here?
Answer: inconclusive: 28.2 µM [inhibitor, single point]

Question: For `CCOc1ccc2nc(NC(=S)N(C)C)sc2c1`, which Potency is on record?
Answer: inconclusive: 0.316 µM [inhibitor, full curve, poor fit]

Question: Which Potency does the source give for `COc1ccc(/C=C2\NC(=S)N(CC3CCCO3)C2=O)c(OC)c1` (stereo not drawn) here?
Answer: inconclusive: 12.6 µM [inhibitor, single point]

Question: Which Potency does the source give for `c1ccc(CCNc2nc(-c3ccccn3)cs2)cc1` here?
Answer: inconclusive: 12.6 µM [inhibitor, partial curve, poor fit]

Question: Which Potency does the source give for `Cc1ccccc1NC(=O)CSC1=Nc2ccccc2C2=NC(Cc3ccccc3)C(=O)N12` (stereo not drawn) here?
Answer: inactive

Question: With `C=CCN(CC=C)S(=O)(=O)c1ccc(C(=O)Nc2nnc(CSC)o2)cc1` as the compound, how does the Potency read?
Answer: inconclusive: 12.6 µM [inhibitor, single point]

Question: Which Potency does the source give for `O=C(Nc1cccc(-c2cscn2)c1)C1CCN(Cc2ccsc2)CC1` here?
Answer: inconclusive: 28.2 µM [inhibitor, partial curve, poor fit]

Question: Which Potency does the source give for `CCN(CC)CCCN(Cc1cc2cc3c(cc2[nH]c1=O)OCCO3)C(=O)Nc1ccc(F)cc1` here?
Answer: inactive

Question: For `CCN1CCN(C2=C(NS(=O)(=O)c3ccc(NC(C)=O)cc3)C(=O)c3ccccc3C2=O)CC1`, which Potency is on record?
Answer: inconclusive: 31.6 µM [inhibitor, single point]

Question: With `Cc1cccc(NC(=O)c2ccc(C(=O)Nc3cccc(C)c3)nc2)c1` as the compound, how does the Potency read?
Answer: inconclusive: 11.2 µM [inhibitor, single point]

Question: Which Potency does the source give for `CCc1cc(CNC(=O)c2ccc(OC3CCN(CCc4ccccc4)CC3)cc2)on1` here?
Answer: inactive

Question: For `Cc1cc(C)c(NS(=O)(=O)c2ccc(-c3cnc(C4CC4)o3)cc2)c(C)c1`, which Potency is on record?
Answer: inconclusive: 0.501 µM [inhibitor, full curve, poor fit]

Question: For `CCOC(=O)c1cc(C#N)c(N2CCN(C)CC2)nc1-c1ccccc1`, which Potency is on record?
Answer: inactive

Question: Which Potency does the source give for `CCc1ccc(N2CC(C(=O)NCC(C)(C)N3CCOCC3)CC2=O)cc1` (stereo not drawn) here?
Answer: inconclusive: 28.2 µM [inhibitor, single point]

Question: With `Cc1cc(CNC(=O)c2cccc3c2C(=O)c2ccc(-c4ccc(F)cc4OCc4ccccc4)cc2S3(=O)=O)c(C(F)(F)F)o1` as the compound, how does the Potency read?
Answer: inconclusive: 28.2 µM [inhibitor, single point]

Question: With `COc1ccc(NC(=O)CCCSc2nc(-c3ccco3)cc(C(F)(F)F)n2)c(OC)c1` as the compound, how does the Potency read?
Answer: inactive

Question: Which Potency does the source give for `Clc1cccc(-c2nnc(SC/C=C/c3ccccc3)n2Cc2ccco2)c1` here?
Answer: inconclusive: 11.2 µM [inhibitor, partial curve]

Question: Which Potency does the source give for `Cc1ccc(SCC(=O)Nc2cc([N+](=O)[O-])ccc2O)cc1` here?
Answer: inconclusive: 12.6 µM [inhibitor, partial curve, poor fit]

Question: For `CC1=Nc2ccccc2/C1=C\c1sc(Nc2ccc(C)cc2)nc1O`, which Potency is on record?
Answer: inconclusive: 0.794 µM [inhibitor, full curve]

Question: For `CC(C)c1ccc(OCc2ccc(C(=O)NN3CCN(C)CC3)o2)cc1`, which Potency is on record?
Answer: inconclusive: 4.47 µM [inhibitor, full curve, poor fit]

Question: Which Potency does the source give for `O=C(Nc1nnc(SCc2ccc(F)cc2)s1)c1ccc2ncsc2c1` here?
Answer: inactive

Question: For `CN(C)C=NC(=O)c1cc2c(n(-c3ccccc3)c1=O)CC(C)(C)CC2=O`, which Potency is on record?
Answer: inactive

Question: With `S=C(Nc1ccccc1)Nc1ccc(OCc2ccccc2)cc1` as the compound, how does the Potency read?
Answer: inconclusive: 2.51 µM [inhibitor, partial curve, poor fit]

Question: With `Cc1cc(C(=O)CN2C(=O)C(=O)N(Cc3ccco3)C2=O)c(C)n1CCc1ccccc1` as the compound, how does the Potency read?
Answer: inconclusive: 5.01 µM [inhibitor, full curve]

Question: With `Cc1cccc(N2CCN(C(=O)c3ccc(CS(=O)c4cccc(Cl)c4)o3)CC2)c1C` (stereo not drawn) as the compound, how does the Potency read?
Answer: inconclusive: 0.891 µM [inhibitor, full curve]

Question: Which Potency does the source give for `CC[C@]12c3[nH]c4ccc(Cl)cc4c3CCN1C(=O)[C@@H](CC(=O)NC/C=C(\C)CCC=C(C)C)C[C@@H]2C(=O)N1CCN(C(=O)c2ccco2)CC1` here?
Answer: inconclusive: 22.4 µM [inhibitor, single point]

Question: Which Potency does the source give for `COc1ccc(C(=O)c2ccc(CC#N)s2)cc1` here?
Answer: inconclusive: 28.2 µM [inhibitor, single point]

Question: With `N#C/C(=N\Nc1ccc(F)cc1)C(=N)N1CCCCC1` as the compound, how does the Potency read?
Answer: inconclusive: 15.8 µM [inhibitor, single point]

Question: With `Cc1cccc(/C=N/NC(=O)c2ccc(F)cc2)n1` as the compound, how does the Potency read?
Answer: inconclusive: 28.2 µM [inhibitor, single point]
